Holding throughout (test): growth of human tumour cells (NCI), 48 h
Assay [1] relates to NCI-H226 lung.
For assay [2], the system named is NCI/ADR-RES ovarian.
In assay [3] the test system is NCI-H522 lung.
In assay [4] the test system is OVCAR-4 ovarian.
Assay [5] deals with MALME-3M melanoma.
In assay [6] the test system is BT-549 breast.
Assay [7] concerns MOLT-4 leukemia.

Each structure is given as a SMILES string.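 The compound was tested at five concentrations on cells cultured in 96-well plates, with a 48-hour exposure period. The concentration for full growth arrest is given as TGI.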 For part of its entries the source gives two or more results. This list holds those alone. The source may hold further records. The values listed for one entry are repeated measurements (runs, samples, wells, individuals or studies). Brackets tell where a record comes from. Letters hold for one entry only.

`O=C(O)c1ccccc1N=Nc1c(O)c(S(=O)(=O)O)cc2cc(S(=O)(=O)O)ccc12`: the TGI in assay [1] is 166 nM [sample A] and > 100 µM [sample B]; in assay [2], 3.43 µM [sample A] and > 100 µM [sample B]; in assay [3], 75.7 nM [sample A] and > 100 µM [sample B]; in assay [4] it was 240 nM [sample A] and > 100 µM [sample B]; in assay [5], 211 nM [sample A] and > 100 µM [sample B]; in assay [6], 952 nM [sample A] and > 100 µM [sample B].

As to `COc1ccc(/C=C(/C)[N+](=O)[O-])cc1OC`, the TGI in assay [7] was > 100 µM [sample A, 1 test] and 7.23 µM [sample B, mean of 2 tests].

Values taken from PubChem BioAssay (NCI).
